# From publication PMC4336329 (PLoS ONE, 2015)
# Out of some 310,000 compounds screened, about 2,200 (0.71%) showed an effect of 50% or more. The effect is printed as a negative number. Some of the results follow.
# Target: human ether-à-go-go-related gene (hERG) potassium channel (human, UniProt Q12809)
# Assay: primary screen, population patch clamp on CHO cells stably expressing hERG
# Chain of human ether-à-go-go-related gene (hERG) potassium channel (Q12809 whole entry, looked up): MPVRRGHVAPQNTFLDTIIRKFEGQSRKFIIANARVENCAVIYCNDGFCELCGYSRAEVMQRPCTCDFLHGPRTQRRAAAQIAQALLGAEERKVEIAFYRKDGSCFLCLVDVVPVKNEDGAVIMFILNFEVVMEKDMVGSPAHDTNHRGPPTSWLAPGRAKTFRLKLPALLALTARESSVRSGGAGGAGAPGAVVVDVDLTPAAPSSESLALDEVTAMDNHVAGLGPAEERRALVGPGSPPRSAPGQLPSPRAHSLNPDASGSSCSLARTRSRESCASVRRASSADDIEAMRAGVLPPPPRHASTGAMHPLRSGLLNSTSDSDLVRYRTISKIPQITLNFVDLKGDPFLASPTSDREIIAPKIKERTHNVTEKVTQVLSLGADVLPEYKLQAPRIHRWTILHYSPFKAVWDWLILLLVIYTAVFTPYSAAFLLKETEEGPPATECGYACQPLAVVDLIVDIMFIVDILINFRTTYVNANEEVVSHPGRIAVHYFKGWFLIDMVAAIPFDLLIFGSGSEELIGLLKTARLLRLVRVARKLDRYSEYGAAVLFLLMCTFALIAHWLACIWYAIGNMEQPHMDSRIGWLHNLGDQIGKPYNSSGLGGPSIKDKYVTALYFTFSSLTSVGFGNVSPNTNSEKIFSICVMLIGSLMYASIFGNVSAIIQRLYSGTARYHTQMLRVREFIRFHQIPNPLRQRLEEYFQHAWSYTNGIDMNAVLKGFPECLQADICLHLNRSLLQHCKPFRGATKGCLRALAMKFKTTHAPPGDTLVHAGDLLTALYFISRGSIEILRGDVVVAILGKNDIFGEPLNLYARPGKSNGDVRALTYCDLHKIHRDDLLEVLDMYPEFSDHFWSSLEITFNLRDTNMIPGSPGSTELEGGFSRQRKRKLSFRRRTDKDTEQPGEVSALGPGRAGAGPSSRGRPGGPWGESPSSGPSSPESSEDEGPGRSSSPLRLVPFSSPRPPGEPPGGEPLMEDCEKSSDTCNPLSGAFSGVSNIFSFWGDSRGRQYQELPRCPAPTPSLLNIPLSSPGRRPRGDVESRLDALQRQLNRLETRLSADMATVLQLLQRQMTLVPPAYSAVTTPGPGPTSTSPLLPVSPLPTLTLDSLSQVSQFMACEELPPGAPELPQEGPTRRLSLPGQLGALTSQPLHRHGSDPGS
row,SMILES,"hERG current change (%, negative = inhibition) at 1uM [%]"
1,O=C(NNC(=O)C12CC3CC(CC(C3)C1)C2)c1ccccc1[N+](=O)[O-],12.4
2,Cc1onc(-c2c(Cl)cccc2Cl)c1C(=O)ONC(=O)c1cc(C(F)(F)F)cc(C(F)(F)F)c1,7.84
3,O=C(NN1C(=O)C2C3CCC(O3)C2C1=O)c1ccco1 (stereo not drawn),11.5
4,CN(C(=O)c1ccc(N2CCCCC2)c([N+](=O)[O-])c1)C1(C)CCS(=O)(=O)C1 (stereo not drawn),-2.8
5,CN(CC(=O)Nc1ncn[nH]1)S(=O)(=O)c1ccc(Br)cc1,6.43
6,O=C(CNS(=O)(=O)c1ccc(Br)cc1)N1CCN(Cc2ccccc2)CC1,-0.28
7,Cn1c(=O)cc(OCC(=O)NCCCN2CCN(c3cccc(Cl)c3)CC2)c2ccccc21,-15.9
8,COc1ccc(NC(=O)CN(C)C(=O)CCc2ccccc2)cc1,11.2
9,CC(C)C(=O)NNC(=O)CSc1nnc(-c2ccccc2)c(-c2ccccc2)n1,14.6
10,Cc1cc(C)nc(NC(=O)c2c(C(=O)O)noc2C)n1,2.44
11,COc1ccc(-c2n[nH]c(C)c2-c2cscn2)c(O)c1,15
12,COc1ccc(NC(=O)CN(C)C(=O)c2ccc3c(c2)S(=O)(=O)N=C2CCCCCN23)cc1,18.6
13,CCc1nc(N2CCOCC2)c(C#N)c2c1COC(C)(C)C2,11.5
14,O=c1c2cc(NC(=S)NCCCN3CCC(Cc4ccccc4)CC3)ccc2nc2n1CCCCC2,-57.1
15,COc1ccc(Cl)cc1Nc1nc(-c2sc(NC(=O)C(C)(C)C)nc2C)cs1,5.37
16,Cc1c(C(=O)NC2CCCCC2)oc2ccccc12,6.27
17,CC(C)(C)OC(=O)NCCCCCc1nnc(SCC(N)=O)o1,-1.99
18,O/N=C/c1cc(Cl)ccc1OCc1ccccc1Cl,16.1
19,CN(CCC#N)C(=O)COC(=O)c1ccccc1C(=O)c1ccc(Cl)c([N+](=O)[O-])c1,8.44
20,O=C(NCC(=O)N(Cc1ccco1)C(C(=O)NC1CCCC1)c1cccnc1)c1cccs1 (stereo not drawn),6.15
21,Cc1cc(C)nc(SCc2ccc(C(=O)N/N=C/c3ccc(C(=O)O)cc3)cc2)n1,7.12
22,Cc1cc(NC(=O)COC(=O)c2ccc(NS(=O)(=O)c3ccc(C)c(C)c3)cc2)no1,8.14
23,CCCCN(CC)CCCNC(=O)c1cn(C)c(=O)c2c1c1ccccc1n2C,3.96
24,CC(=O)Nc1ccc(Oc2cc(C#N)c(C#N)cc2N2CCOCC2)cc1,5.03
25,CN1CCN(CCCNC(=O)CCC(=O)N2CCOc3ccccc32)CC1,8.85
26,CCCc1nnc(NC(=O)CCC(=O)N2CCN(C3c4ccccc4-c4ccccc43)CC2)s1,12.9
27,COc1ccc(CNC(=O)CC2C(=O)NCCN2CC(C)(C)C)c(OC)c1 (stereo not drawn),-0.778

row,SMILES,"hERG current change (%, negative = inhibition) at 1uM [%]"
1,CCc1ccc(-c2ccc(C(=O)O)cc2)nc1,14.3
2,COc1ccc(OC)c(NC(=O)CCN2CC(C)OC(C)C2)c1 (stereo not drawn),7.64
3,COC(=O)/C=C1\N/C(=N\c2nc(C)cc(C)n2)N(c2ccc(Cl)cc2)C1=O,9.23
4,CCN(CC)S(=O)(=O)c1cccc(NC(=O)CCSc2ccc(Cl)cc2)c1,5.18
5,CC(=O)c1cc(-c2ccccc2)n(CC(=O)N2CCC(C)CC2)c1C,0.147
6,CC(C)CCn1c(=O)c2ccccc2n2c(CN3C(=O)NC4(CCC(C)CC4)C3=O)nnc12 (stereo not drawn),-2.47
7,O=C(Cc1cccc2ccccc12)Nc1nnc(-c2cccc([N+](=O)[O-])c2)s1,6.91
8,COc1cc(/C=C2\NC(=S)NC2=O)ccc1OCc1cccc(C(=O)O)c1,6.37
9,COc1cc(OC)c(OC)cc1CN1CCCC(C(=O)N2CCCC2)C1.O=C(O)C(=O)O (stereo not drawn),18.2
10,CCn1c(CNC(=O)c2ccco2)nnc1SCCOc1ccccc1,11.1
11,O=C(Nc1cccc(C(F)(F)F)c1)OC1CN2CCC1CC2 (stereo not drawn),8.86
12,COc1ccc(CCNC(=O)C2CCN(S(=O)(=O)N3CCC(C)CC3)CC2)cc1OC,15.7
13,COc1ccc(/C=C(\C#N)C(=O)N2COCC2(C)C)cc1,7.39
14,O=C(NC1CCCC1)c1ccc(Br)o1,2.22
15,CN(C)S(=O)(=O)c1cccc(-c2cn3cccnc3n2)c1,13.5
16,COc1ccc(C(=O)Cn2c3ccccc3n3nc(CCC(=O)O)c(=O)nc23)cc1OC,12.5
17,COc1ccc(CNCc2ccc3ccccc3c2)c(OC)c1.O=C(O)C(=O)O,-14.1
18,Cc1c(C(c2cc3c(cc2Br)OCO3)c2c(C)n(C)n(-c3ccccc3)c2=O)c(=O)n(-c2ccccc2)n1C,1.6
19,CCOc1ccc(NS(=O)(=O)c2ccc(NC(=S)NC(C)=O)cc2)cc1,10.8
20,COc1ccc(N(C(C)C(=O)N(C)Cc2ccccc2)S(C)(=O)=O)cc1 (stereo not drawn),14.5
21,COc1ccc(CCNC(=O)CS(=O)(=O)Cc2nc(-c3ccc(C)cc3)oc2C)cc1OC,5.06
22,CC(O)c1ccc(Oc2cnccn2)cc1 (stereo not drawn),18.4
23,COC(=O)C1=C(c2ccc(OC)c(OC)c2)C[C@@H]2CC[C@H]1N2C(=O)NC1CC1,3.73
24,CCOC(=O)c1cc(-c2cc(OC)c(OC)c(OC)c2)nc2c1c(=O)[nH]c(=O)n2Cc1ccccc1,10.8
25,COc1ccc(NC(=O)c2cc3ccccc3[nH]2)cc1,10.1
26,CCC1CCCCN1C(=O)c1cc(COc2ccc3ncccc3c2)on1 (stereo not drawn),15
27,COc1ccc(C2CC(c3ccccc3)=NN2C(=O)COC(=O)c2cnc(Cl)c(Cl)c2)cc1 (stereo not drawn),8.17
